Each block holds one binder with its values, some of them ahead of it.
Columns and labels:
[1] = molecular target: T1, recombinant human VEGF-B167 (human, UniProt P49765-2 22-188); test: ELISA on plate-coated recombinant human VEGF-B167; anti-human IgG1-Fc-HRP, OD450
T1 sequence (looked up): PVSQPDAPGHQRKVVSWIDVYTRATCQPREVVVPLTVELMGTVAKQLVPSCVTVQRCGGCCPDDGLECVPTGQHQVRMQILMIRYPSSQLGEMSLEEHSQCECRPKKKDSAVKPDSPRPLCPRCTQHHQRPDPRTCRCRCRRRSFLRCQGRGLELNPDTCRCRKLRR
Procedure: After non-specific blocking using 1% BSA at 25° C. for 1 hour, a series of dilutions of test antibodies (“Abs”) were added into the coated wells and incubated at 25° C. for 1 hour. The bound Abs were detected using a secondary Ab (goat anti-human IgG1-Fc) conjugated with HRP followed by OD₄₅₀ reading.

rat VEGF-A165 = molecular target: T2, rat VEGF-A165 (rat, UniProt P16612-2 27-190); test: ELISA, cross species binding
T2 sequence (looked up): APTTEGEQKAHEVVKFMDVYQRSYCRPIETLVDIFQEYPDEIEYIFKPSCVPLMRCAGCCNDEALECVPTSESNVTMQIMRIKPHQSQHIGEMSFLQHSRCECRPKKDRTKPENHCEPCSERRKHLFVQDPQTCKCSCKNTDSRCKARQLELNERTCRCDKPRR

rat Ang-2 = molecular target: T3, rat Ang-2 (rat, UniProt O35462 19-496, limits assumed); test: ELISA, cross species binding
T3 sequence (looked up): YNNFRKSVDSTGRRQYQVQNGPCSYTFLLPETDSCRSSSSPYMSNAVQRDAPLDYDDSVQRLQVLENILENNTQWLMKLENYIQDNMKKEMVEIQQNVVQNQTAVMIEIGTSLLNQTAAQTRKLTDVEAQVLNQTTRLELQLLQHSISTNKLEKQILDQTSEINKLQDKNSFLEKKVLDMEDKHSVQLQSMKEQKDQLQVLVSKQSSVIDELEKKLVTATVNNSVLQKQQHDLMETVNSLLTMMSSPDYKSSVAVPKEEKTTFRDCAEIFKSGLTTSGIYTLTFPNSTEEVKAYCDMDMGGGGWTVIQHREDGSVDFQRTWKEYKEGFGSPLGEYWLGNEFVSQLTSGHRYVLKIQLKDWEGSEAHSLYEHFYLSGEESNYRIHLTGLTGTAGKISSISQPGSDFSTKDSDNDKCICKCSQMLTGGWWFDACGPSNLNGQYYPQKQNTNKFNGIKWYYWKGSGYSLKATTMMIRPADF

[2] = molecular target: T4, recombinant human VEGF-A165 (human, UniProt P15692-4 27-191); test: ELISA, cross species binding
T4 sequence (looked up): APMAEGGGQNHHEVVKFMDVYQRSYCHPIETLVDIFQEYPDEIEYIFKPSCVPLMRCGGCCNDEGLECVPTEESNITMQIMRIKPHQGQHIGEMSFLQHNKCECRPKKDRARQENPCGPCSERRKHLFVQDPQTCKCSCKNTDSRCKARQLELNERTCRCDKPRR

rabbit VEGF-A165 = rabbit VEGF-A165 (rabbit); test: ELISA, cross species binding
Rhesus monkey IL-6R = molecular target: T5, Rhesus monkey IL-6R (Rhesus monkey, UniProt A0A5F8AUE5 20-365); test: ELISA, cross species binding
T5 sequence: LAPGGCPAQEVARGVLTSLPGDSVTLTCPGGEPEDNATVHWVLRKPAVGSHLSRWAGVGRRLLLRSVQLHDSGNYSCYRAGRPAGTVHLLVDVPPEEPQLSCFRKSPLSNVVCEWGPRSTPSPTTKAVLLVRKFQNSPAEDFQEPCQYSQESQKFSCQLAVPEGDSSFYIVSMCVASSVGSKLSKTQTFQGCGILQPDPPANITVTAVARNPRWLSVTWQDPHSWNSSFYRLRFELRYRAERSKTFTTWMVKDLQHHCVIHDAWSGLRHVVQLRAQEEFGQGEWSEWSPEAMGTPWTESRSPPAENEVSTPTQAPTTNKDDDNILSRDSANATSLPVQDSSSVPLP

recombinant human IL-6R = molecular target: T6, recombinant human IL-6R (human, UniProt P08887 20-365, limits assumed); test: ELISA, cross species binding
T6 construct: Recombinant protein used in ELISA and as SPR analyte; also called hIL-6R
T6 sequence (looked up): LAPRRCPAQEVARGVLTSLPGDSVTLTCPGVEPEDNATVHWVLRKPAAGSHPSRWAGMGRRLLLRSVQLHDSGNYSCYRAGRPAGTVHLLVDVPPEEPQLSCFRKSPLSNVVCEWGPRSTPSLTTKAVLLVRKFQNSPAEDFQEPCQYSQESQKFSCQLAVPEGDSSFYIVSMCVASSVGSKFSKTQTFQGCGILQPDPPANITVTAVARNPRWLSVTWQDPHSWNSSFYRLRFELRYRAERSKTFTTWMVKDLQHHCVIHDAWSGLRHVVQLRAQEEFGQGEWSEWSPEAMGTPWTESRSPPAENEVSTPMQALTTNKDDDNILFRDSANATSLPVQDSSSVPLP

Rhesus monkey VEGF-A165 = Rhesus monkey VEGF-A165 (Rhesus monkey); test: ELISA, cross species binding
recombinant human Ang-2 = molecular target: T7, recombinant human Ang-2 (human, UniProt O15123 19-496, limits assumed); test: ELISA, cross species binding
T7 construct: also called Angiopoietin-2; hAng-2
T7 sequence (looked up): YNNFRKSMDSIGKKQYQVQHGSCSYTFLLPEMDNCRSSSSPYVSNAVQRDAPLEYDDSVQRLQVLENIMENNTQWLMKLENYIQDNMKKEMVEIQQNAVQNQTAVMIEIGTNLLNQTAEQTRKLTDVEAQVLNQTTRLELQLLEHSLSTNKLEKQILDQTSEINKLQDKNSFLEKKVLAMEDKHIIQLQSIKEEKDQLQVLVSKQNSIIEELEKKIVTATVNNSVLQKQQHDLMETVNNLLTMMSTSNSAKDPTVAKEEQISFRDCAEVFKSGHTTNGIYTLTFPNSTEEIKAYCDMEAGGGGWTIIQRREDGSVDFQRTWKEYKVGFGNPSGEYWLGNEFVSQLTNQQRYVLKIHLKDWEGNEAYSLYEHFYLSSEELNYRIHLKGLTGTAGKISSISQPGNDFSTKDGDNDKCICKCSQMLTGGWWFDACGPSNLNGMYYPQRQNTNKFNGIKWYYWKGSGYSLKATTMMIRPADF

Rhesus monkey Ang-2 = Rhesus monkey Ang-2 (Rhesus monkey); test: ELISA, cross species binding

EC50 [1]: 43 pM
B1: EB-105BI-7CA (other)
heavy: QVQLQESGPGLVRPSQTLSLTCTVSGYSITSDHAWSWVRQPPGRGLEWIGYISYSGITTYNPSLKSRVTMLRDTSKNQFSLRLSSVTAADTAVYYCARSLARTTAMDYWGQGSLVTVSSASTKGPSVFPLAPSSKSTSGGTAALGCLVKDYFPEPVTVSWNSGALTSGVHTFPAVLQSSGLYSLSSVVTVPSSSLGTQTYICNVNHKPSNTKVDKKV[human IgG1 Fc skipped]GGSGGGGSGGGGSAQTNFMPMDDLEQRLYEQFILQQGLE
light: SDTGRPFVEMYSEIPEIIHMTEGRELVIPCRVTSPNITVTLKKFPLDTLIPDGKRIIWDSRKGFIISNATYKEIGLLTCEATVNGHLYKTNYLTHRQTNTIIDVVLSPSHGIELSVGEKLVLNCTARTELNVGIDFNWEYPSSKHQHKKLVNRDLKTQSGSEMKKFLSTLTIDGVTRSDQGLYTCAASSGLMTKKNSTFVRVHEKDIQMTQSPSSLSASVGDRVTITCRASQDISSYLNWYQQKPGKAPKLLIYYTSRLHSGVPSRFSGSGSGTDFTFTISSLQPEDIATYYCQQGNTLPYTFGQGTKVEIKRTVAAPSVFIFPPSDEQLKSGTASVVCLLNNFYPREAKVQWKVDNALQSGNSQESVTEQDSKDSTYSLSSTLTLSKADYEKHKVYACEVTHQGLSSPVTKSFNRGEC
notes: VEGFR-1-D2-VEGFR-2-D3 at the N-terminus of the tocilizumab light chain; Made in CHO cells; also called B21138001

binding affinity measured by ELISA (rat VEGF-A165): 0.0207 nM | binding affinity measured by ELISA (rat Ang-2): 0.508 nM | binding affinity measured by ELISA [2]: 0.0621 nM | binding affinity measured by ELISA (rabbit VEGF-A165): 0.0775 nM | binding affinity measured by ELISA (Rhesus monkey IL-6R): 0.0498 nM | binding affinity measured by ELISA (recombinant human IL-6R): 0.0359 nM | binding affinity measured by ELISA (Rhesus monkey VEGF-A165): 0.0621 nM | binding affinity measured by ELISA (recombinant human Ang-2): 0.0643 nM | binding affinity measured by ELISA (Rhesus monkey Ang-2): 0.0729 nM
B2: EB-105BI-7CB (other)
heavy: QVQLQESGPGLVRPSQTLSLTCTVSGYSITSDHAWSWVRQPPGRGLEWIGYISYSGITTYNPSLKSRVTMLRDTSKNQFSLRLSSVTAADTAVYYCARSLARTTAMDYWGQGSLVTVSSASTKGPSVFPLAPSSKSTSGGTAALGCLVKDYFPEPVTVSWNSGALTSGVHTFPAVLQSSGLYSLSSVVTVPSSSLGTQTYICNVNHKPSNTKVDKKV[human IgG1 Fc skipped]GGSGGGGSAQTNFMPMDDLEQRLYEQFILQQGLE
light: B1 light
notes: Trispecific antibody fusion protein, first embodiment; lead molecule; also called B21138002
